Assay results from PubChem BioAssay AID463173 (ICCB-Longwood Screening Facility, Harvard Medical School, 2010).
About 4,300 (8.3%) of roughly 52,000 compounds were called active. Rule as the data show it: active = survival mostly below about 52% (no sharp cut-off); inactive = mostly above about 56%. The list shows a part of the results.

What follows are compounds tested on DeltatarO mutant (assay: growth inhibition of S. aureus wild type versus tarO mutant, primary screen, teichoic acid synthesis inhibitors, RN4220, OD600 (AID 463173)). Conditions: OD600, 18 h, hits give low values, screened at 18.75 µg/mL (by protocol).

SMILES	survival
CCCNC(=O)C1CCC(Cn2c(=O)c3sccc3n(Cc3cccc(OC)c3)c2=O)CC1 (configuration not stated)	inactive: 67%
CCn1nnc2cc(C(=O)Nc3cccc(Cl)c3)ccc21	inactive: 94%
Cc1nc2nc(NC(=O)c3cccc(Cl)c3)[nH]n2c(=O)c1Cc1ccccc1	inactive: 111%
O=C(O)CC(c1ccc(F)cc1)c1ccco1 (configuration not stated)	inactive: 97%
Cc1ccc(S(=O)(=O)c2nc(-c3cccs3)oc2N2CCCCC2)cc1	active: 39%
COc1ccc2c(c1)c1c(c(=O)n(-c3ccc(OC)c(OC)c3)c(=O)n1Cc1ccccc1C)n2C	inactive: 92%
CC(=O)c1cccc(NS(=O)(=O)c2ccc3[nH]c4c(c3c2)CCCCCC4)c1	inactive: 79%
Cc1ccc(-n2ncc(C(=O)NCCN3CCN(C)CC3)c2C2CCN(C(=O)OC(C)(C)C)CC2)c(C)c1	inactive: 92%
N#CC1=C(N)SC(N)=C(C#N)C1CCC1CCCCC1	active: 2%
COc1cccc(N2CC(NC(=O)Cc3cccs3)CC2=O)c1 (configuration not stated)	inactive: 69%
CN1C(=O)CC(=O)N(C)c2cc(S(=O)(=O)N(C)Cc3ccccc3)ccc21	active: 3%
CCn1cc(C(=O)NCCc2ccc(C)cc2)c(=O)c2cc(S(=O)(=O)N(C)C)ccc21	inactive: 82%
CCCCN(CCCC)CCNC(=O)c1cn(C)c2ccc(S(=O)(=O)N3CCOCC3)cc2c1=O	inactive: 93%
Cc1c(Cl)cccc1NS(=O)(=O)c1ccc2[nH]cc(C(=O)NC3CCCC3)c(=O)c2c1	active: 7%
c1ccc(Cn2nnnc2C(c2ccccc2)N2CCN(Cc3ccncc3)CC2)cc1 (configuration not stated)	inactive: 78%
C#CC(C)(C)NS(=O)(=O)c1cc(-c2nnc(Nc3ccc(C)cc3)c3ccccc23)ccc1C	inactive: 69%
Cc1ccc(NC(=O)CN(c2ccccc2)S(=O)(=O)N(C)C)cc1Cl	inactive: 58%
Cc1ccc(NC(=O)NCc2ccc3c(c2)CCN3C(=O)c2ccccc2)c(Cl)c1	inactive: 82%
COc1ccc(OC)c(S(=O)(=O)Nc2cc3c(cc2C)n(C)c(=O)c(=O)n3C)c1	inactive: 84%
CN(Cc1ccccc1)C(=O)CN1C(=O)CSc2ccc(S(=O)(=O)N3CCOCC3)cc21	inactive: 88%
COc1ccc(NC(=O)CCS(=O)(=O)c2nc(-c3cccs3)cc(C(F)(F)F)n2)cc1OC	inactive: 77%
O=C(c1noc2c1CCCCC2)N1CCN(c2ccc(Cl)cc2)CC1	inactive: 98%

SMILES	survival
COc1ccccc1NC(=O)Cn1c(=O)n(Cc2ccc3c(c2)OCO3)c(=O)c2oc3ccccc3c21	inactive: 77%
CCc1ccc(-c2cn3c(n2)sc2cc(C(=O)NCCc4ccc(OC)cc4OC)ccc23)cc1	inactive: 59%
Oc1c(C(c2ccccc2)N2CCC3(CC2)OCCO3)sc2nc(-c3ccco3)nn12 (configuration not stated)	inactive: 69%
Cc1nc(N2CCOCC2)c2c(C(=O)NCc3cccc(Cl)c3)c(C)oc2n1	inactive: 98%
CCCC(=O)C1=C(O)C(C(=O)OC)C(C)(C)CC1=N (configuration not stated)	inactive: 95%
COc1ccc(-c2nc3c(c(SCC(=O)Nc4ccc(C(=O)O)cc4)n2)Cc2ccccc2O3)cc1	inactive: 66%
CCOC(=O)Cc1ccc(NC(=O)Nc2cccc(OCc3cc(=O)n4cc(C)ccc4n3)c2)cc1	inactive: 92%
O=C(CCCCCn1c(=O)c2sccc2n(CC(=O)Nc2cccc(Cl)c2)c1=O)NCc1ccc2c(c1)OCO2	inactive: 57%
CCc1cccc(NC(=O)CSc2ncc3c(n2)-c2ccc(Cl)cc2N(Cc2ccccc2)S3(=O)=O)c1	inactive: 92%
COc1cccc(C(=O)NC2(C(F)(F)F)C(=O)Nc3c2c(=O)[nH]c(=O)n3-c2ccc(C)cc2)c1 (configuration not stated)	inactive: 83%
CCc1c(C)sc2c1CCN(C(=O)Nc1cc(OC)c(OC)c(OC)c1)C2c1ccccc1 (configuration not stated)	active: 25%
COc1ccc(NC(=O)c2cn(CC(C)C)c(=O)c3cc(OC)c(OC)cc23)cc1Cl	inactive: 50%
NS(=O)(=O)c1ccc(CCNC(=O)CCCCCn2c(=O)[nH]c3ccccc3c2=O)cc1	inactive: 74%
Cc1ccc(NC(=O)c2nn(C)c3c2CS(=O)(=O)c2ccccc2-3)c(Cl)c1	inactive: 59%
CCOc1ccc(C(=O)c2cn(CC(=O)Nc3ccc(F)cc3)c3cc4c(cc3c2=O)OCCO4)cc1	inactive: 109%
O=C(CSc1nnc(-c2ccccc2)c(-c2ccccc2)n1)NC1CCCC1	inactive: 77%
CCOc1ccc(OCC)c(NS(=O)(=O)c2c(C(=O)N3CCCCCC3)c(C)n(C)c2C)c1	inactive: 76%
O=C(NCCCO)C(=O)NCC(c1ccc2c(c1)OCO2)N1CCOCC1 (configuration not stated)	active: 37%
Cc1ccc(OCCn2c(CCNC(=O)C3CCCCC3)nc3ccccc32)cc1	inactive: 61%
Cc1ccc2c(=O)cc(C(=O)Nc3ccc(S(=O)(=O)N(C)Cc4ccccc4)cc3)oc2c1C	inactive: 92%
COc1cccc(C(=O)NCc2cn3ccccc3n2)c1	inactive: 98%
c1cncc(-c2nc(NCc3ccco3)c3ccccc3n2)c1	inactive: 88%

SMILES	survival
COc1ccc(S(=O)(=O)NCC(c2ccc(N(C)C)cc2)N2CCCC2)cc1 (configuration not stated)	inactive: 69%
CCOC(=O)C1CCCN(S(=O)(=O)c2cc3c4c(c2)CC(=O)N4CCC3)C1 (configuration not stated)	inactive: 93%
O=C(O)C1C2C=CC(C2)C1C(=O)N1CCN(Cc2ccccc2)CC1 (configuration not stated)	inactive: 59%
CCC(C)(C)NC(=O)C1CCN(S(=O)(=O)c2c(C)noc2/C=C/c2ccc(C)cc2)CC1	active: 52%
COc1ccc(NC(=O)C2=CC(c3ccc4c(c3)OCO4)=NS(=O)(=O)N2C)cc1	inactive: 88%
CCc1ccc(NC(=O)Cn2c(=O)n(CCCCC(=O)NCCc3ccccc3)c(=O)c3ccccc32)cc1	inactive: 84%
COc1ccc(C)cc1NC(=O)C1COc2ccccc2C1 (configuration not stated)	inactive: 83%
Fc1ccc(-n2cc(-c3ccccc3)c3c(NCCc4ccccc4)ncnc32)cc1	inactive: 77%
O=C(Nc1ccc2c(c1)OCO2)c1cc(-c2ccc(Br)cc2)on1	inactive: 63%
COC(=O)CN(c1ccc(C)c(C)c1)S(C)(=O)=O	inactive: 68%
CCOC(=O)C1(CC)CC(C)(c2csc(N)n2)OC1=O (configuration not stated)	inactive: 93%
Cc1ccccc1C(=O)Nc1nc2nc(-c3ccccc3)cc(=O)n2[nH]1	inactive: 71%
Clc1cccc(-n2cc(-c3ccccc3)c3c(N4CCCCC4)ncnc32)c1	inactive: 101%
Cc1cc(C)c(/C=C/c2onc(C)c2S(=O)(=O)N2CCC(C(=O)N(C)Cc3ccccc3)CC2)c(C)c1	inactive: 89%
Cc1ccc(NC(=O)Nc2nnc(N(C)C3CCCCC3)s2)c(Cl)c1	inactive: 104%
O=C1CCS(=O)(=O)CC1	inactive: 81%
Cc1ccc(-n2c(=O)c3c4c(sc3n(Cc3ccccc3C)c2=O)CCC4)cc1C	inactive: 134%
COC(=O)C[n+]1ccc(C)cc1	inactive: 69%
CCOC(=O)N1CC=C2C(C#N)=C(N)C(C#N)(C#N)C(Cc3ccccc3)C2C1 (configuration not stated)	inactive: 77%
Cc1ccc(NC(=O)c2oc3ccc(S(=O)(=O)N4CCCCC4)cc3c2C)cc1Cl	inactive: 71%
CCN(Cc1ccccc1)C(=O)CCc1c(C)nc2c(c(C)nn2-c2ccc(C)c(C)c2)c1C	inactive: 95%
Cn1c(=O)c2c(-c3ccc(Br)cc3)n(CCc3ccccc3)cc2n(C)c1=O	inactive: 89%

SMILES	survival
CCc1cccc(C)c1NC(=O)Cn1cc2c(n1)CCCC2	inactive: 99%
CCN1C(C(=O)c2ccccc2)=C(OC(=O)c2ccc(OC)cc2)c2ccccc2S1(=O)=O	active: 46%
CCOC(=O)c1cnc2c(ccc3ccccc32)c1Nc1cccc(C(F)(F)F)c1	active: 36%
Cc1ccc(NC(=O)CCCn2c(=O)c3cccn3c3ccccc32)c(C)c1	inactive: 49%
Cc1ccc(C(=O)NCC(c2ccc3c(c2)OCO3)N2CCN(C)CC2)cc1C (configuration not stated)	inactive: 71%
CCc1noc(-c2ccc(NCc3ccccc3)c([N+](=O)[O-])c2)n1	inactive: 69%
COc1ccccc1N1CCN(C(=O)c2cn(C)c3ccc(S(=O)(=O)N(C)C4CCCCC4)cc3c2=O)CC1	inactive: 83%
COCCN(Cc1cc2cc3c(cc2nc1Cl)OCO3)C(=O)Nc1ccccc1OC	inactive: 92%
CCOc1ccc(NC(=O)c2cnn(-c3ccc(C)c(C)c3)c2C2CCN(C(=O)OC(C)(C)C)CC2)cc1	inactive: 75%
CCOc1ccc(Nc2nc3c(S(=O)(=O)c4cccc(Cl)c4)nnn3c3ccsc23)cc1	inactive: 41%
CC1=C(C(=O)Nc2ccccc2)C(c2ccc(C(=O)O)cc2)n2ncnc2N1 (configuration not stated)	inactive: 60%
CCc1ccc(OCC(=O)N(Cc2ccco2)Cc2ccccc2Cl)cc1	inactive: 84%
COc1ccc2c(c1)c1c(c(=O)n(-c3ccccc3)c(=O)n1CC(=O)NCCC1=CCCCC1)n2C	inactive: 84%
Cn1ncc2c(NCc3ccccc3Cl)nc(NCCO)nc21	inactive: 67%
O=C(Nc1ccc(-n2nncc2-c2ccccc2)cc1)c1cccc(F)c1	inactive: 129%
O=C(CN1C(=O)CCn2nc(-c3ccccc3)cc21)NCc1ccc(F)cc1	inactive: 69%
CCOc1ccc(CNC(=O)C2CCN(S(=O)(=O)c3cn(C)cn3)CC2)cc1	inactive: 99%
N=c1c(C(=O)NCC2CCCO2)cc2c(=O)n3ccccc3nc2n1CCCO (configuration not stated)	inactive: 92%
COc1ccc(Cn2c(C(=O)O)c(CNCCc3ccco3)c3ccc(C)cc32)cc1	inactive: 85%
COc1ccc(F)cc1S(=O)(=O)NCC(c1ccco1)S(=O)(=O)c1ccc(F)cc1 (configuration not stated)	inactive: 63%
CCCn1c(=C(C#N)C#N)s/c(=C2\C=Cc3ccccc3N2CC)c1=O	inactive: 97%
